According to PubChem BioAssay AID493208 (National Center for Advancing Translational Sciences (NCATS), 2011):
Hit rate of the full screen: of about 44,000 compounds, about 340 (0.77%) were called active. Another 5% or so got no clear call; they are omitted. Calls follow the shape of the dose curve; as a rule, active = well fitted inhibition curve with a large enough effect; inconclusive = small, poorly fitted or top-dose-only effect; inactive = flat fitted curve, though single readings scatter. This is one part of the list.

assay: Acumen qHTS Assay for Inhibitors of the mTORC1 Signaling Pathway in MEF (Tsc2-/-, p53-/-) Cells: Sytravon; settings: phospho-rpS6 immunofluorescence/PI, 24 h; series mostly up to 38.3 µM; activity change, negative = inhibition: at the top concentration;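 also: plate controls were DMSO for no effect and rapamycin for full effect; nearly all actives have a fitted effect of over 50% in size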
Summary of the method: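 Tsc2-/-, p53-/- MEFs (empty-vector stable line) in DMEM + 10% FBS were treated with compounds 24 h at 37 degree Celsius, fixed, and immunostained for phospho-rpS6 (Alexa-488) with propidium iodide counterstain. Laser-scanning cytometry gave % positive cells, normalized against 7.5 nM rapamycin and DMSO.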

Activity change, negative = inhibition, inactive:
O=C(CCn1c(=O)c2ccccc2n(Cc2cccc(F)c2)c1=O)NCc1ccc2c(c1)OCO2 6.26%
Cc1cc(C)cc(N2C(=O)N(Cc3cc(=O)n4ccccc4n3)c3ccccc3S2(=O)=O)c1 -5.8%
CCc1nn(CC(=O)NCc2ccc(C)cc2)c(=O)c2cc3occc3n12 0.877%
COc1ccc(N2CCN(c3nc4ccc(C(=O)c5ccccc5)cc4n4cnnc34)CC2)cc1 -3.11%
COc1ccc(NC(=O)Cc2c(C(=O)O)[nH]c3ccccc23)cc1OC 0.234%
COc1ccc(CNC(=O)Cc2coc3ccc(C)cc23)cc1 -7.6%
Cc1ccc(NC(=O)c2oc3ccc(S(=O)(=O)N4CCOCC4)cc3c2C)c(C)c1 -1.39%
COc1cc(C2c3c(oc4ccc(F)cc4c3=O)C(=O)N2Cc2ccc3c(c2)OCO3)ccc1O (configuration not stated) 0.735%
CCCCN(CC)C(=O)c1c[nH]c2ccc(S(=O)(=O)N(C)c3ccc(Cl)cc3)cc2c1=O 6.44%
COC(=O)c1cccnc1-n1c(=O)c2cccnc2n(CC(=O)Nc2cccc(C)c2)c1=O 0%
CC(C)Oc1ccc(CNC(=O)c2ccc3c(c2)nc2n3CCOC2)cc1 -9.31%
COc1cc(NC(=O)N2CCSc3ccccc32)cc(OC)c1OC 5.72%
CCN(c1ccccc1C)S(=O)(=O)c1nnc(NC(=O)c2ccccc2C)s1 4.11%
CCCc1nnc(NC(=O)Nc2ccccc2Cl)s1 5.79%
Cc1nc2nc(C)c(NS(=O)(=O)c3ccc(CC(C)C)cc3)c(=O)n2[nH]1 -1.26%
CCOc1ccc(OCC)c(NC(=O)C2CCCN(S(=O)(=O)c3cc(Br)cc4c3N(C(=O)CC)CC4)C2)c1 (configuration not stated) 0.459%
Cc1nn(C(=O)c2c(F)cccc2F)c(C)c1S(=O)(=O)N1CCCCCC1 -4.67%
CCn1c(CN2CCOCC2)nc2cc(NC(=O)c3cccc([N+](=O)[O-])c3)ccc21 -5.13%
Cn1c(=O)c2c(-c3ccccc3)n(CCCO)cc2n(C)c1=O -10.5%
COc1ccc(NC(=O)Cn2cc(C(=O)c3ccccc3OC)c(=O)c3ccc(C)nc32)cc1OC -3.7%
CC(=O)Nc1nnc2n1CCS2 -1.36%
COc1ccc(C)cc1NC(=O)c1nnn(-c2c(C)cccc2C)c1C 0.573%
Cc1ccc(C)c(NC(=O)/C(C#N)=C/c2ccc(C(C)C)cc2)c1 -12.7%
CCOC(=O)c1ccc(N2CCN(c3cc(C)ccc3C)CC2)c(NC(=O)Nc2ccc(Cl)cc2)c1 14.3%
CC(C)N(C(=O)Cn1cc(SCC(=O)Nc2ccccc2C(F)(F)F)c2ccccc21)C(C)C 2.99%
CCOc1ccc(C2C(C(=O)Nc3ccccc3C)=C(C)Nc3nnnn32)cc1 (configuration not stated) -2.43%
Cn1c(=O)c2c(c3ccccc31)OC(=O)CC2c1cccc(Cl)c1 (configuration not stated) -8.82%
COc1ccccc1/C=C/c1nc(C#N)c(NCC(C)C)o1 -0.281%
COc1cc(NC(=O)CN2Cc3ccccc3C2=O)cc(OC)c1OC -4.01%
Cc1ccc(-c2nc(CCNC(=O)C(=O)Nc3c(C)cccc3C)cs2)cc1 -20.3%
CCOCCn1cnc2sc(C(=O)Nc3ccccc3C(=O)OC)c(C)c2c1=O -1.11%
O=C(Cn1ccc2cc(S(=O)(=O)N3CCCCC3)ccc21)NCc1ccccc1Cl -1.05%
CCOc1cccc(CC(=O)N2CCc3c([nH]c4ccccc34)C2c2ccc(SC)cc2)c1OCC (configuration not stated) -0.582%
COc1ccc(N2C(=O)CSC23C(=O)N(Cc2ccc(C)cc2)c2ccccc23)cc1Cl (configuration not stated) -7.1%
CCOc1ccc(NC(=O)Cn2nc(Cc3ccncc3)c3ccccc3c2=O)cc1 -11.6%
CCCN(CCC)C(=O)c1nn(C)c2c1CSc1ccc(C)cc1-2 0%
CC(C)Cn1c(=O)c2ccccc2n2c(CCC(=O)Nc3ccc(F)cc3)nnc12 -3.79%
CCOC(=O)c1cc(-c2ccccc2)n(CCCC(=O)Nc2ccccc2C)c1C -2.59%
COc1ccc(-n2ccnc(NCc3ccccc3Cl)c2=O)cc1OC 5.61%
COc1ccc(C(=O)c2oc3ccccc3c2NC(=O)c2cccc(OC)c2)cc1 1.89%
Cc1nc(-c2ccc(S(=O)(=O)Nc3ccc(Cl)c(C(F)(F)F)c3)cc2)co1 -12%
COc1ccc(CNC(=O)c2sc3nc4n(c(=O)c3c2C)CCCCC4)cc1 3.34%
Clc1cccc(C2=NC(c3cccs3)=Nc3ccc(Br)cc3N2)c1 -5.55%
CCN(CC)CCOC(=O)c1ccc(Nc2c3c(nc4ccccc24)CCC3)cc1 -10.3%
COc1ccc(CNC(=O)C(CC(C)C)N2Cc3ccccc3C2=O)cc1 (configuration not stated) -2.77%
CC(C)CN(CCNC(=O)c1cc(-c2cccs2)nc2ccccc12)CC(C)C 2.64%
CCOc1ccccc1CNC(=O)c1cnc2sc(N(CC)CC)nn2c1=O -0.921%
Cc1ccc2nc(COc3cccc(NC(=O)c4ccccc4Cl)c3)cc(=O)n2c1 0.719%
CCc1ccc(-c2nc(CS(=O)CC(=O)NCCc3ccc(C)cc3)c(C)o2)cc1 (configuration not stated) -0.574%
CCOc1ccc(N(C)C(=O)c2oc(=O)c3ccccc3c2-c2ccccc2)cc1 -2.36%
CC(C)c1cnc2c(c1SCC(=O)NC(C)(C)C)c(=O)n(C)c(=O)n2C 8.44%
O=C(O)CC1c2ccccc2CCN1C(=O)Nc1cc(Cl)ccc1Cl (configuration not stated) 0%
CCn1cc2c(n1)-c1c(oc(C(=O)Nc3ccc(Br)cc3F)c1C)CC2 -3.1%
Cc1ccc(N(CC(=O)N2CCN(c3cc(C)ccc3C)CC2)S(=O)(=O)c2c(C)nn(C)c2C)cc1 -5.46%
CCOC(=O)c1noc2nc(C)n(CC(=O)Nc3cccc(OC)c3)c(=O)c12 0.148%
Cc1ccc(CN(C(=O)c2ccc(OCC(C)C)cc2)c2ccccn2)o1 -8.08%
Cc1cc(Cl)ccc1-n1c(CCC(=O)O)ccc1-c1cccs1 -2.09%
CCCCC1CCC(C(=O)N2CC(=O)Nc3ccc(Br)cc3C2c2ccc(F)cc2)CC1 (configuration not stated) -17.3%
CCc1ccc(S(=O)(=O)c2nnn3c2nc(N2CCN(c4ccccc4)CC2)c2cc(Cl)ccc23)cc1 1.96%
Cc1cccc2c1-c1sc(C(=O)Nc3ccc(F)cc3F)cc1CO2 -10.5%
CCc1c(C)c2ccc(O)c(CN3CCN(c4cc(Cl)ccc4C)CC3)c2oc1=O 1.03%
CCN(CC)C(=O)Cn1c(=O)n(CCCCCC(=O)NCc2ccc3c(c2)OCO3)c(=O)c2sccc21 1.33%
O=c1c2sc3ccccc3c2n(Cc2cccc(F)c2)c(=O)n1CCc1ccccc1 3.18%
CCC(=O)OCc1cc(=O)n2nc(C3CC3)sc2n1 -0.0754%
Cc1ccc(CNC(=O)C(=O)Nc2c3c(nn2-c2ccc(F)cc2)CSC3)cc1 -7.99%
Cc1ccc(NC(=O)CN2C(=O)COc3ccc(S(=O)(=O)N4CCCCCC4)cc32)c(C)c1 4.31%
Cc1ccc(CNC(=O)c2ccc(N3CCCC3)c(NC(=O)Nc3ccc(C)cc3)c2)cc1 0%
CCCc1cc(=O)oc2c3c(ccc12)OCN(Cc1ccccc1OC)C3 -11.7%
CN(C(=O)Cn1nc(Cc2cccnc2)c2ccccc2c1=O)c1cccc(C(F)(F)F)c1 -11.3%
COC(=O)c1ccccc1NC(=O)[C@H]1O[C@@H]2OC(C)(C)O[C@@H]2[C@H]2OC(C)(C)O[C@H]21 -0.766%
Cc1cc(C)cc(OCC(=O)Nc2cccc3cccnc23)c1 -2.67%
CCCc1cnc2c(c1SCC(=O)NCc1ccc(C)cc1)c(=O)n(C)c(=O)n2C 2.99%
CCCCCCC(=O)Nc1ccc2nc3c(=O)n(C)c(=O)n(C)c3nc2c1C 7.04%
O=C(c1ccc2c(c1)N(Cc1ccc(Cl)cc1)C(=O)c1ccccc1S2(=O)=O)N1CCCC1 0.456%
CCOC(=O)c1ccc(N2C(=O)c3n[nH]c(-c4ccco4)c3C2c2ccc(C(=O)OC)cc2)cc1 (configuration not stated) -16.8%
CC(=O)Nc1cccc(-c2nc(-c3ccccc3)no2)c1 1.27%
COc1ccccc1CCNC(=O)Cc1c(C)c2cc(Cl)c(O)cc2oc1=O -2.01%
CCCCOc1ccccc1C1CC(=O)Nc2ccc3ccccc3c21 (configuration not stated) -22.8%
CC(C)c1ccc(S(=O)(=O)N2CCN(Cc3cccc(F)c3)CC2)cc1 -18.1%
CCOc1ccc(CNC(=O)c2oc3c(c2C)-c2nn(Cc4cccc(Cl)c4)cc2CC3)cc1 7.48%
COc1ccc(C)c2sc(NC(=O)c3ccc(S(=O)(=O)N(C)C)cc3)nc12 5.23%
CCOc1ccc(-c2cccc(NS(=O)(=O)c3ccc(C)s3)c2)nn1 -0.419%
CCCCN(CC)C(=O)CSc1nc2n[nH]c(C)c2c(=N)n1-c1ccc(CC)cc1 0.0765%
CCOC(=O)C1CCN(C(=O)c2cc3sc(C)cc3n2C)CC1 -4.61%
Cc1ccc(N(C)C(=O)c2sc3nc4n(c(=O)c3c2C)CCCC4)cc1C 3.46%
COc1ccc(NC(=O)CSc2ncc3c(n2)-c2ccccc2N(Cc2ccc(C)cc2)S3(=O)=O)cc1Cl -19.8%
COCCCn1c(=O)c2sccc2n2c(CCCC(=O)NCc3cccc(OC)c3)nnc12 3.34%
CCOC(=O)C1CCN(C(=O)c2ccccc2NC(=O)c2nsc3ccccc23)CC1 5.07%
CCOc1ccc(NS(=O)(=O)c2c(C)nc3sc(C)c(C)n3c2=O)cc1 -4.26%
CCN1C(=O)c2ccccc2S(=O)(=O)c2ccc(C(=O)NCc3ccccc3)cc21 -10.2%
CCOC(=O)C1CCC(CN(Cc2ccc(Cl)cc2)S(=O)(=O)c2cccc(Cl)c2C)CC1 (configuration not stated) 10.7%
Cc1nc2nc(NC(=O)c3ccc(C(C)(C)C)cc3)[nH]n2c(=O)c1C -8.12%
CCCCOc1ccc(C(=O)Nc2ccc3c(c2)CCCN3C(=O)c2cccs2)cc1 5.93%
O=C(CCC1N=C2c3ccccc3N=C(SCC(=O)Nc3cccc(Cl)c3)N2C1=O)NCc1ccco1 (configuration not stated) -11.5%
NC(=O)C1CCN(S(=O)(=O)c2cc3c(cc2Cl)NC(=O)CO3)CC1 -4%
CCc1ccc(OCC2c3cc(OC)c(OC)cc3CCN2C(=O)c2ccc(S(=O)(=O)N3CCCC3)cc2)cc1 (configuration not stated) 7.21%
CCn1cc(C(=O)NCCCOC(C)C)c(=O)c2cc(S(=O)(=O)N3CCOCC3)ccc21 0.643%
